The campaign covered roughly 150,000 compounds. About 540 (0.36%) showed an effect of 50% or more. The list shows a part of the results.

This assay has as its system Plasmodium falciparum. Put plainly: Primary screen in NF54 nanoGlo assay, in single point, at 2uM, 72h; a lower Z score goes with more inhibition. The format is functional, Erythrocyte. As to conditions: timepoint 72 hour.
The term % Inhibition denotes the relative decrease from the control value, in per cent. Consider `CS(=O)(=O)NCCOC1CCCCCC1`, for which the “% Inhibition” value is on record as -12% and the Z score came to 1.72.
The like results for `CS(=O)(=O)c1ccc(Br)c(S(=O)(=O)N2CCC(n3ccnc3)CC2)c1` were, in that order, -5% and 0.95.
The corresponding values for `Cc1cc(C(=O)N2CCC=C(c3cnn(C)c3)C2)ns1` are 4% and -0.72.
The like results for `Cc1cccc(CNC(=O)NCCC(=O)N(C)C)c1Br` were, in that order, -8% and 0.85.
`CCc1nc(-c2ccc(N3CCN(C)CC3)cc2)n([C@H]2CCCC[C@@H]2O)n1`: the “% Inhibition” value is -5% and the Z score amounted to 0.87.
The like results for `C[C@H]1CCCN(C(C)(C)CNS(=O)(=O)c2cccc3c2OCCO3)C1` were, in that order, -7% and 0.76.
The like results for `COc1ccc(-n2nc(C)c3sc(N4CCN(C(=O)c5ccc(F)c(F)c5)CC4)nc32)cc1` were, in that order, 1% and -0.13.
On to `CC(C)c1cccc(S(=O)(=O)N2CCC(c3nncn3C)CC2)c1`, for which the “% Inhibition” value is recorded as -2% and the Z score came to 0.36.
The corresponding values for `Cc1cnn(CCNC(=O)[C@@H]2C[C@H](C)CC(=O)N2)c1` are -1% and 0.12.
The like results for `Cc1ccc(F)cc1NC(=O)N1CCC12CCC2` were, in that order, 38% and -5.46.
The corresponding values for `Cc1nn(C)c(C)c1S(=O)(=O)N[C@H]1CCOc2ccc(F)cc21` are -10% and 0.95.
In the case of `COc1ccc(C(=O)Nc2nc(-c3cccs3)c(NC(=O)c3ccc(Cl)cc3)s2)cc1`, the “% Inhibition” value is -6% and the Z score is listed as 0.81.
The corresponding values for `O=C(CCN1CCN(c2ccc(O)cc2)CC1)Nc1ccccc1` are -12% and 1.48.
The like results for `Cn1nccc1NC(=O)Cn1cc(-c2ccnc(N)n2)cn1` were, in that order, -5% and 0.72.
The like results for `C[C@H](Oc1ccc2c(c1)CCC2=O)c1ncc(C(C)(C)C)o1` were, in that order, 4% and -0.44.
Consider `CCOC(=O)CN(C(=O)c1cnc(C)nc1C)C(C)(C)C`, for which the “% Inhibition” value is -6% and the Z score is recorded as 0.74.
The corresponding values for `COCC1(CNC(=O)CN2CCN(C)C2=O)CCCC1` are -10% and 1.1.
The like results for `COCCN(C)c1ccc(NCc2cc(C#N)cs2)nc1` were, in that order, 15% and -2.43.
The corresponding values for `C[C@H]1C(=O)N(Cc2ccccc2)CCN1Cc1nccs1` are 6% and -1.05.
For `Cc1ccc([C@H]2CN(C(=O)c3cc(C)n[nH]3)C[C@@H]2N(C)C)cc1`, the “% Inhibition” value is on record as -3% and the Z score is 0.44.
In the case of `Cc1ncc(NC(=O)NC[C@@H]2Cc3ccccc3CO2)c(C2CC2)n1`, the “% Inhibition” value is given as -7% and the Z score turned out to be 1.16.
The corresponding values for `O=C(CC[C@@H]1NC(=O)N(Cc2cccc(F)c2)C1=O)N1CCc2ccccc2C1` are -10% and 1.25.
The like results for `C[C@H]1c2ccsc2CCN1C(=O)c1csc2c1CCCC2` were, in that order, -3% and 0.3.
As for `c1ccc([C@H](CC2CCC2)NC2CCC3(CC2)OCCO3)cc1`, the “% Inhibition” value is reported as 34% and the Z score is -3.87.
Turning to `Cc1cc2c(cc1S(=O)(=O)N1CCC[C@H]1C(=O)N(Cc1ccccc1)C(C)C)OCC(=O)N2`, the “% Inhibition” value was -9% and the Z score was determined as 1.31.
The corresponding values for `CCc1onc(C)c1NC(=O)c1ccc2[nH]cnc2c1` are 1% and -0.08.
The like results for `Cc1nn(CC(=O)Nc2cccc([C@@H](F)C(F)(F)F)c2)c(=O)n1C` were, in that order, -12% and 1.62.
As for `CN(C)c1ncc(-c2nccn2C2CCCC2)cn1`, the “% Inhibition” value is given as -14% and the Z score is 1.64.
The corresponding values for `Cc1ccnc(-n2nccc2NC(=O)N2CCOC3(CCC3)C2)c1` are -11% and 1.57.
The corresponding values for `Cc1nn(C)c2nc(C(=O)NCc3ccc(F)cc3)cc(C3CC3)c12` are 28% and -3.22.
The like results for `CC1(C(=O)NOC2CCCCO2)CC1(Cl)Cl` (stereo not given) were, in that order, -24% and 2.87.
Consider `O=C(NCCCN1CCOCC1)c1cc(NS(=O)(=O)c2ccc(F)cc2)ccn1`, for which the “% Inhibition” value is on record as -7% and the Z score came out at 1.21.
The like results for `Cc1nc(N)cc(NCCc2noc(C3CCC3)n2)n1` were, in that order, 0% and -0.02.
The like results for `CCOC(=O)N1CCN(c2nc(-c3cccc(OC)c3)no2)CC1` were, in that order, -16% and 1.4.
The like results for `C[C@@H]1COCCN1C(=O)Cc1ccc(Cl)cc1` were, in that order, -7% and 0.91.
Take `Cc1ccccc1OCC(=O)Nc1cc(-c2ccccc2F)nn1-c1ccccc1`: the “% Inhibition” value is 6% and the Z score is given as -0.84.
`NC(=O)C1CCCCN1Cc1cc(Br)cc2c1OC(c1ccccc1)OC2` (stereo not given): the “% Inhibition” value was -11% and the Z score amounted to 1.62.
The like results for `COc1ccccc1-c1n[nH]c(CC(C)C)c1NC(=O)C1CCCC1` were, in that order, 3% and -0.52.
The like results for `COC(=O)c1cc(F)cc(NC(=O)[C@@H]2CCCCO2)c1F` were, in that order, -14% and 2.18.
The like results for `O=C(c1cc2c(s1)CCCCC2)N1CCCn2ncnc21` were, in that order, -17% and 3.37.
As for `C=CCNC(=O)c1c(NC(=O)c2ccccc2C)n(-c2ccccc2OC)c2nc3ccccc3nc12`, the “% Inhibition” value is reported as 7% and the Z score is recorded as -0.81.
The like results for `O=C(NC1CCCCC1)c1cnn2c(-c3cccc(Cl)c3)ccnc12` were, in that order, -15% and 1.39.
The corresponding values for `CN(CC(C)(CO)CO)C(=O)c1c(Cl)cccc1Cl` are -9% and 0.95.
The like results for `CCCc1cnc(C)nc1N[C@H]1CCC[C@@H](CO)C1` were, in that order, 1% and -0.1.
On to `CN(C)c1cc(NC(=O)[C@H]2CCCOCC2)ccn1`, for which the “% Inhibition” value amounted to 1% and the Z score is on record as -0.2.
The corresponding values for `CN(C)Cc1nnc([C@H]2C[C@@H](NC(=O)c3cncc(F)c3)C2)n1C` are -22% and 2.24.
The corresponding values for `CCN(CCC(=O)N1CCN(C)CC1)C(=O)c1cc2n(n1)CCCN(Cc1ccc(F)cc1)C2=O` are -1% and 0.06.
The corresponding values for `CC(C)n1cnnc1CN(C)c1cc([C@H]2CCOC2)nc(N2CC(O)C2)n1` are -1% and 0.11.
Regarding `Cc1ccc(N(C)S(=O)(=O)c2c(C)sc(C)c2-c2cc(C(F)(F)F)on2)cc1C`, the “% Inhibition” value is -7% and the Z score was determined as 1.18.
For `COCc1noc([C@H](C)N2CCOc3cc(OC)ccc3C2)n1`, the “% Inhibition” value is 11% and the Z score was -1.32.
The corresponding values for `O=C(CCc1cn[nH]c1)N1CCO[C@@H](CCCc2ccccc2)C1` are -20% and 2.56.
The like results for `CCCn1c(=O)c(C)nc2cc(-c3noc(-c4ccc(C)c(NC(=O)c5ccco5)c4)n3)ccc21` were, in that order, 5% and -0.53.
The corresponding values for `Cc1c(-c2cncc(C(F)(F)F)c2)cnn1C` are -13% and 1.38.
For `O=S(=O)(NCCc1cnoc1)N1CC2CCC1C2` (stereo not given), the “% Inhibition” value is -1% and the Z score is listed as 0.24.
The like results for `Cc1c(NC(=O)COC(=O)c2ccc(-c3ccccc3)cc2)c(=O)n(-c2ccccc2)n1C` were, in that order, -1% and 0.18.
In the case of `CC(C)c1ccc(NC(=O)C2CC3CC(N)C3C2)cn1` (stereo not given), the “% Inhibition” value is -9% and the Z score is recorded as 1.76.
The corresponding values for `CC1(C)C[C@H](NC(=O)c2conc2C(C)(C)N)c2ccccc2O1` are -7% and 1.25.
Consider `O=C(CNC(=O)c1ccc(-c2cscn2)cc1)Nc1cccnc1`, for which the “% Inhibition” value is -14% and the Z score worked out at 2.08.
The corresponding values for `Cc1noc(-c2cccnc2NCCN2CCOCC2(C)C)n1` are -9% and 0.96.
The corresponding values for `COc1ccc(C)cc1NC(=O)[C@@H]1CCCN1C(=O)C1CC(=O)C1` are -12% and 1.18.
The corresponding values for `CCN(CC(=O)NCC(F)(F)F)c1cccc(O)c1` are 4% and -0.73.
On to `C=CCNC(=O)N(C)Cc1cnc(CC)s1`, for which the “% Inhibition” value is on record as -5% and the Z score amounted to 0.96.
Consider `CCCCc1nc(C)c(C(=O)N2CCNC(=O)C2)s1`, for which the “% Inhibition” value is reported as 1% and the Z score is on record as -0.12.
Turning to `COC(=O)c1cc(C)nc(N[C@@H](CO)C(C)(C)C)n1`, the “% Inhibition” value came out at 22% and the Z score was -2.82.
In the case of `O=C(c1ccc2oc(-c3ccc(C(F)(F)F)cc3)nc2c1)N1CCOCC1`, the “% Inhibition” value was -2% and the Z score is reported as 0.27.
The like results for `O=C(NC[C@H]1C[C@@H]1C(F)(F)F)N1CC2(CCCO2)C1` were, in that order, 2% and -0.31.
As for `Cc1n[nH]c(C)c1[C@@H](N)C(=O)NCc1cc(-c2ccccc2Cl)no1`, the “% Inhibition” value is on record as -12% and the Z score was 1.81.
As for `N[C@H]1CCN(C(=O)Cc2cccc(Cl)c2)C[C@@H]1O`, the “% Inhibition” value is given as -7% and the Z score came out at 1.54.
For the compound `O=C1CCc2cc(S(=O)(=O)N3Cc4ccccc4C[C@H]3C(=O)N3CCCC3)ccc2N1`, the “% Inhibition” value is given as -4% and the Z score was 0.73.
The like results for `CS(=O)(=O)C1(CNc2ncc(Cl)cc2F)CC1` were, in that order, -4% and 0.44.
Turning to `O=C1CC[C@@H](C(=O)NCC2(c3cccs3)CCCCC2)N1`, the “% Inhibition” value was -6% and the Z score worked out at 0.75.
The corresponding values for `Cc1noc(CCCN(C)Cc2ccccc2Cl)n1` are -15% and 2.32.
As to `CCc1nc(CN(C)c2nc(C)cc(C)c2C#N)no1`, the “% Inhibition” value was -2% and the Z score amounted to 0.42.
The like results for `CCN1C[C@H](CN(C)C(=O)NCc2cccnc2)Oc2ccccc21` were, in that order, 7% and -0.88.
The like results for `O=C(O)c1c(NC(=O)c2cccc3ccccc23)sc2c1CCCC2` were, in that order, -8% and 1.33.
The like results for `CC(C)(C)CN1CCC[C@@]2(CCN(C(=O)Nc3ccccc3Cl)C2)C1=O` were, in that order, -4% and 0.68.
For the compound `NC(=NCC1CCC1)N1CCN(c2ccccc2F)CC1`, the “% Inhibition” value is recorded as 2% and the Z score was -0.33.
The corresponding values for `COc1ccc2cc(C(=O)N3CCC(CC(=O)NC4CCCC4)CC3)[nH]c2c1` are -14% and 1.31.
Regarding `CS(=O)(=O)N1CCN(C(=O)N2CCN(c3ccc(C4CC4)nn3)CC2)C1=O`, the “% Inhibition” value is on record as -8% and the Z score amounted to 1.63.
The like results for `CCn1cc(C(=O)N2CCC[C@H](c3[nH]ncc3-c3ccc(F)cc3)C2)c(C)n1` were, in that order, 3% and -0.66.
The corresponding values for `CC(C)(C)OC(=O)N[C@@]1(c2noc(C3CCC3)n2)CCOC1` are 0% and 0.01.
The corresponding values for `COc1ccc(CN[C@H]2CCCc3nc(N4CCC(CO)CC4)ncc32)cc1C` are -16% and 2.3.
With `O=C(c1ccc(F)c(F)c1F)N1CC[C@H](c2ncon2)C1`, the “% Inhibition” value was -10% and the Z score was found to be 1.76.
The like results for `Cc1ccc(C(=O)N2CC(C)CC(C)C2)cc1NCc1c[nH]nc1C` (stereo not given) were, in that order, -1% and 0.17.
The corresponding values for `CCCc1nc(C)c(CNS(=O)(=O)c2cc(-c3ccno3)oc2C)s1` are -16% and 2.74.
